6 molecules from article PMC1141267 can be followed below.

The chains behind the UniProt entries cited, without tags or fusion partners.
UniProt Q9VCU9: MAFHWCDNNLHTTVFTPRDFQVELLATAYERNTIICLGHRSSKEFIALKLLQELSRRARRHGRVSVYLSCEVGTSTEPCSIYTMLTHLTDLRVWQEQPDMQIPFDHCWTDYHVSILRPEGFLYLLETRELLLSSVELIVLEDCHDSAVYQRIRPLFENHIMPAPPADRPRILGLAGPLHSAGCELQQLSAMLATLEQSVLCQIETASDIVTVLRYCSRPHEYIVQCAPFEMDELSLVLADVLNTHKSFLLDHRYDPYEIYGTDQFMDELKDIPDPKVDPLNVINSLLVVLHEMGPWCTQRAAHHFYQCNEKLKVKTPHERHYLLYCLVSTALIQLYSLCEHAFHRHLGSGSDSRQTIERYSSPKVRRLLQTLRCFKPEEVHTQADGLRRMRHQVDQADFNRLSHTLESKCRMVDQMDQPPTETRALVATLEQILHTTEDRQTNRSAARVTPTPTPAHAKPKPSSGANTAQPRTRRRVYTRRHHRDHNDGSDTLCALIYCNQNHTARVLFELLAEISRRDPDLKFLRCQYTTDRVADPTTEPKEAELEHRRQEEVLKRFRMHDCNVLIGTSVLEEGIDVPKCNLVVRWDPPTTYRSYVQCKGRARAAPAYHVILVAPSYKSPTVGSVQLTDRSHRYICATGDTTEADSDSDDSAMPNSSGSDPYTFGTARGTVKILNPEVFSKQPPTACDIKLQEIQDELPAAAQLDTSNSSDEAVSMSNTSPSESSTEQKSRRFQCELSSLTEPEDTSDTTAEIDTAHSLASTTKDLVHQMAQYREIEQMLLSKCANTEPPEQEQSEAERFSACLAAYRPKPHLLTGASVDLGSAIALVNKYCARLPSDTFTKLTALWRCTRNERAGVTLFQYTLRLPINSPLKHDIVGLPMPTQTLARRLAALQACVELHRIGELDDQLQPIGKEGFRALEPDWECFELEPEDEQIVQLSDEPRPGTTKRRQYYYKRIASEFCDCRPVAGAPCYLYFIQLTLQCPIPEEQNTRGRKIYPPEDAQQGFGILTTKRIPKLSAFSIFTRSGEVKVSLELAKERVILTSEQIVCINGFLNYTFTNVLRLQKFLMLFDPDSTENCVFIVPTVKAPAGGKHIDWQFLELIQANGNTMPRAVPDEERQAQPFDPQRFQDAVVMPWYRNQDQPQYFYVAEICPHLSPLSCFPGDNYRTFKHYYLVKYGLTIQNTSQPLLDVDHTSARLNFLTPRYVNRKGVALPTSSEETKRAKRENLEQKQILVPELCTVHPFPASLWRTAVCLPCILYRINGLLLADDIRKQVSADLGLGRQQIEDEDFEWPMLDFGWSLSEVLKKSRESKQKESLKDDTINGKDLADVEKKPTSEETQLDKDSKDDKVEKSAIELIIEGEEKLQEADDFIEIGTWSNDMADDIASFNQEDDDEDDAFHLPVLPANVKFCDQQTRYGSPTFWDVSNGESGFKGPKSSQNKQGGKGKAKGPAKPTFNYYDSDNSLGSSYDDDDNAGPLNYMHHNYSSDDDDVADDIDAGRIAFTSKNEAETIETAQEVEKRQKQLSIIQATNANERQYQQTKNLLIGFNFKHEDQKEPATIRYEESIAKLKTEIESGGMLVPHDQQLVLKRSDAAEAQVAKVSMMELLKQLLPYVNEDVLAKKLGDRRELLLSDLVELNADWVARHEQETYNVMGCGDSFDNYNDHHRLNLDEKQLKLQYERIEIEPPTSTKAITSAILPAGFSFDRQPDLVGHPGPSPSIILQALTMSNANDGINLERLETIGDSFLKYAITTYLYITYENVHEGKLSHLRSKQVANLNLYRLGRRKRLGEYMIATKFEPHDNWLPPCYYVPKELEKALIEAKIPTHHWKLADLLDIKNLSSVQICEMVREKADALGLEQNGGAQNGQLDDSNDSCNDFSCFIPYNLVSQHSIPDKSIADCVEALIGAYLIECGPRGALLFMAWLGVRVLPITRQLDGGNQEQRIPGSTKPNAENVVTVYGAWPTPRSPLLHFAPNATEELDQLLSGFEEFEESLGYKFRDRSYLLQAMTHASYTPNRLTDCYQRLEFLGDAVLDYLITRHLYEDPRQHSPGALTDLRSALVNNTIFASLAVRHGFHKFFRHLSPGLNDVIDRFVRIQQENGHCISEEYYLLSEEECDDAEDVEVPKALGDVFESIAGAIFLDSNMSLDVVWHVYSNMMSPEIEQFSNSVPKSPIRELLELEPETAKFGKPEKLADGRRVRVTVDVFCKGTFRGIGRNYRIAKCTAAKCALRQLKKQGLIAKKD
UniProt A1ZAW0: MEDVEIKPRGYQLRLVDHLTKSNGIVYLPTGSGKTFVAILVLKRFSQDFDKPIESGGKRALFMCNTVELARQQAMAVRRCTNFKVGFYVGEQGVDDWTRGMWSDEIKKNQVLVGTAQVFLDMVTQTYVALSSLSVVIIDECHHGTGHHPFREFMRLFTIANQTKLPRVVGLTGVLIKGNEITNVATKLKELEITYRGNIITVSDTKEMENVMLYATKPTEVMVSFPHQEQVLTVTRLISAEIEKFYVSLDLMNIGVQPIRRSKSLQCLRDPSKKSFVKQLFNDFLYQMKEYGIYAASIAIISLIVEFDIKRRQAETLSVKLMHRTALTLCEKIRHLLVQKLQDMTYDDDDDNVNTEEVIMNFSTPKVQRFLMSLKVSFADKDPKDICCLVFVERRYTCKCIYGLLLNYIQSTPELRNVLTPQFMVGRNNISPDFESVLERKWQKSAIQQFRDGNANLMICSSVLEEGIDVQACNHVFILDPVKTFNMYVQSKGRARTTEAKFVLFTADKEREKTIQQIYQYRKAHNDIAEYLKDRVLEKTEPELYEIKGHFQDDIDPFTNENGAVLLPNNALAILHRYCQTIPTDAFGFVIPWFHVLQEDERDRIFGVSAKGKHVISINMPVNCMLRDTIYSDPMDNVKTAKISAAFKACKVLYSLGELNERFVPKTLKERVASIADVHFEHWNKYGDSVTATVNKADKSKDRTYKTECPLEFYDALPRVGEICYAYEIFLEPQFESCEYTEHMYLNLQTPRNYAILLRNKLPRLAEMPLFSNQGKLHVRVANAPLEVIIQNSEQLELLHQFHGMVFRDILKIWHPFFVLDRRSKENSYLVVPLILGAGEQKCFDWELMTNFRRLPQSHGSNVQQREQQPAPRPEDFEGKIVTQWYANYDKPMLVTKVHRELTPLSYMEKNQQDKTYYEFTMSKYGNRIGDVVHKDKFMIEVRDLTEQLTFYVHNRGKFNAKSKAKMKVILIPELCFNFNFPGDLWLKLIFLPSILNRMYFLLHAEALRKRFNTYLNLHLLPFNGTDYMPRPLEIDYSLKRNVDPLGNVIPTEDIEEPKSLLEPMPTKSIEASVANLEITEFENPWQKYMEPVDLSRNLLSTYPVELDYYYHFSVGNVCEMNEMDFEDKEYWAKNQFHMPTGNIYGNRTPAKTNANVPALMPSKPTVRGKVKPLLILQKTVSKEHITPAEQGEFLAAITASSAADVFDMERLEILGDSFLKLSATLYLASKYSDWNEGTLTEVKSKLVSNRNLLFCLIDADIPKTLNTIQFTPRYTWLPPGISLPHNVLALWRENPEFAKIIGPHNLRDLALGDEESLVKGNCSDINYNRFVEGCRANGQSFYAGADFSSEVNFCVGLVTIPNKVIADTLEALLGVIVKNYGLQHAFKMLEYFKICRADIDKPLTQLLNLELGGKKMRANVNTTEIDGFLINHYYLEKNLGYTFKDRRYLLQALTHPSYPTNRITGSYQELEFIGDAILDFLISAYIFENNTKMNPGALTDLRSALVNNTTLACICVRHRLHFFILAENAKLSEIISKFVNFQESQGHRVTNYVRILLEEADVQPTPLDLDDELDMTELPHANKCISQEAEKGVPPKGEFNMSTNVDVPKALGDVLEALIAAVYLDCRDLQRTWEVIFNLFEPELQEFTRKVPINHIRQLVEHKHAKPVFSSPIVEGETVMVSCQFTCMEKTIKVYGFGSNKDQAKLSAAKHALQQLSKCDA

Results are given in words; binding and its absence hold for the method and conditions named. In cells and extracts the contact can be indirect. Some binding calls cover weakened binding; strength is not graded here. For some of these results: Where a sequence is shown, tags or fusion partners need not be part of it.

Assay [1] has as its target T1, myc-tagged Loqs protein isoform B (Drosophila melanogaster) (UniProt Q9VJY9).
T1 sequence: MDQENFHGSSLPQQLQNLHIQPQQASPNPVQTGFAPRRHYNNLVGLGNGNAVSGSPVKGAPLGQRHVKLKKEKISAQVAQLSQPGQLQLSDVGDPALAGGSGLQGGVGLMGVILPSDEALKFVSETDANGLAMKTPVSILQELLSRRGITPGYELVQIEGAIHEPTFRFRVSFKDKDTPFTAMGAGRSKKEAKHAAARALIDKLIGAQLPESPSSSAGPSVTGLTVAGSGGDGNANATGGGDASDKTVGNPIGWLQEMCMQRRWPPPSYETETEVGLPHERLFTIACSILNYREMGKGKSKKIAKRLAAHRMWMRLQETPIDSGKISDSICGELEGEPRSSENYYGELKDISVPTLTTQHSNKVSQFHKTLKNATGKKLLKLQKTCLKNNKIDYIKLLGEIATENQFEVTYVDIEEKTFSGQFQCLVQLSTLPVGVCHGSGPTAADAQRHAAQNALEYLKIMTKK
Put plainly: co-IP; anti-myc (9E10) immunoprecipitation from lysates of transfected S2 cells, 4 °C, washes with lysis buffer with 1% Triton X-100; Western blot with anti-Dcr-1 or anti-Dcr-2. A general note: Immunoblotting shows a protein as a band on a membrane.

Assay [2] has as its target T2, myc-tagged Loqs protein isoform A (Drosophila melanogaster) (UniProt Q9VJY9).
T2 sequence: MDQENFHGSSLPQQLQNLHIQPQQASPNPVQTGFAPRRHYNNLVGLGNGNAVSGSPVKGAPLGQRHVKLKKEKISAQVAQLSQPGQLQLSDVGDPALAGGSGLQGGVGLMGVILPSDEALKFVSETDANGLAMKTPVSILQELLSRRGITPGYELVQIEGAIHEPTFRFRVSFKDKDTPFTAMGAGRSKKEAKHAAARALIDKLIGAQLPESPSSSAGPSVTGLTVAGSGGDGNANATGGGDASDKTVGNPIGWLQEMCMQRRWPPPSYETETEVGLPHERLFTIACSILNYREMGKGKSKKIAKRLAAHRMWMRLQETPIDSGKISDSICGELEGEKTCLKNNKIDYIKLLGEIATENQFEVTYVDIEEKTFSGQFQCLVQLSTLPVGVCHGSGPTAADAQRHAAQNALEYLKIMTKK
Described as above.

The target in assay [3] is Dicer-1 (Drosophila melanogaster (endogenous in S2 cells)) (UniProt Q9VCU9). Put plainly: co-IP; anti-Dcr-1 immunoprecipitation from lysates of S2 cells transfected with myc-tagged GFP, Loqs PA or Loqs PB; Western blot with anti-myc.
Assay [4] has the same target. The assay is described as follows: co-IP; anti-Dcr-1 immunoprecipitation from S2 cell lysate; Western blot with anti-Loqs to detect endogenous Loqs isoforms.

Consider “Dicer-2 (from UniProt A1ZAW0 1-1722) (enzyme)”, for which, in assay [1], the binding entry is “no binding”.
For “Dicer-1 (from UniProt Q9VCU9 1-2249) (enzyme)”, the binding entry in assay [2] and in assay [1] was “binds” in each case.

B1: myc-tagged Loqs protein isoform B (protein, UniProt Q9VJY9-1 1-465)
chain: MDQENFHGSSLPQQLQNLHIQPQQASPNPVQTGFAPRRHYNNLVGLGNGNAVSGSPVKGAPLGQRHVKLKKEKISAQVAQLSQPGQLQLSDVGDPALAGGSGLQGGVGLMGVILPSDEALKFVSETDANGLAMKTPVSILQELLSRRGITPGYELVQIEGAIHEPTFRFRVSFKDKDTPFTAMGAGRSKKEAKHAAARALIDKLIGAQLPESPSSSAGPSVTGLTVAGSGGDGNANATGGGDASDKTVGNPIGWLQEMCMQRRWPPPSYETETEVGLPHERLFTIACSILNYREMGKGKSKKIAKRLAAHRMWMRLQETPIDSGKISDSICGELEGEPRSSENYYGELKDISVPTLTTQHSNKVSQFHKTLKNATGKKLLKLQKTCLKNNKIDYIKLLGEIATENQFEVTYVDIEEKTFSGQFQCLVQLSTLPVGVCHGSGPTAADAQRHAAQNALEYLKIMTKK
On to B1, for which the binding entry in assay [3] is “binds”.

B2: Loqs protein isoform B (endogenous) (protein, UniProt Q9VJY9-1 1-465)
chain: MDQENFHGSSLPQQLQNLHIQPQQASPNPVQTGFAPRRHYNNLVGLGNGNAVSGSPVKGAPLGQRHVKLKKEKISAQVAQLSQPGQLQLSDVGDPALAGGSGLQGGVGLMGVILPSDEALKFVSETDANGLAMKTPVSILQELLSRRGITPGYELVQIEGAIHEPTFRFRVSFKDKDTPFTAMGAGRSKKEAKHAAARALIDKLIGAQLPESPSSSAGPSVTGLTVAGSGGDGNANATGGGDASDKTVGNPIGWLQEMCMQRRWPPPSYETETEVGLPHERLFTIACSILNYREMGKGKSKKIAKRLAAHRMWMRLQETPIDSGKISDSICGELEGEPRSSENYYGELKDISVPTLTTQHSNKVSQFHKTLKNATGKKLLKLQKTCLKNNKIDYIKLLGEIATENQFEVTYVDIEEKTFSGQFQCLVQLSTLPVGVCHGSGPTAADAQRHAAQNALEYLKIMTKK
Regarding B2, the binding result in assay [4] is “binds”.

B3: myc-tagged Loqs protein isoform A (protein, UniProt Q9VJY9-2 1-419)
chain: MDQENFHGSSLPQQLQNLHIQPQQASPNPVQTGFAPRRHYNNLVGLGNGNAVSGSPVKGAPLGQRHVKLKKEKISAQVAQLSQPGQLQLSDVGDPALAGGSGLQGGVGLMGVILPSDEALKFVSETDANGLAMKTPVSILQELLSRRGITPGYELVQIEGAIHEPTFRFRVSFKDKDTPFTAMGAGRSKKEAKHAAARALIDKLIGAQLPESPSSSAGPSVTGLTVAGSGGDGNANATGGGDASDKTVGNPIGWLQEMCMQRRWPPPSYETETEVGLPHERLFTIACSILNYREMGKGKSKKIAKRLAAHRMWMRLQETPIDSGKISDSICGELEGEKTCLKNNKIDYIKLLGEIATENQFEVTYVDIEEKTFSGQFQCLVQLSTLPVGVCHGSGPTAADAQRHAAQNALEYLKIMTKK
On to B3, for which, in assay [3], the binding result was “binds”.

B4: Loqs protein isoform A (endogenous) (protein, UniProt Q9VJY9-2 1-419)
chain: MDQENFHGSSLPQQLQNLHIQPQQASPNPVQTGFAPRRHYNNLVGLGNGNAVSGSPVKGAPLGQRHVKLKKEKISAQVAQLSQPGQLQLSDVGDPALAGGSGLQGGVGLMGVILPSDEALKFVSETDANGLAMKTPVSILQELLSRRGITPGYELVQIEGAIHEPTFRFRVSFKDKDTPFTAMGAGRSKKEAKHAAARALIDKLIGAQLPESPSSSAGPSVTGLTVAGSGGDGNANATGGGDASDKTVGNPIGWLQEMCMQRRWPPPSYETETEVGLPHERLFTIACSILNYREMGKGKSKKIAKRLAAHRMWMRLQETPIDSGKISDSICGELEGEKTCLKNNKIDYIKLLGEIATENQFEVTYVDIEEKTFSGQFQCLVQLSTLPVGVCHGSGPTAADAQRHAAQNALEYLKIMTKK
As for B4, the binding entry in assay [4] is “binds”.
